Source: ChEMBL document CHEMBL4888484, “Replenishing the malaria drug discovery pipeline: Screening and hit evaluation of the MMV Hit Generation Library 1 (HGL1) against asexual blood stage Plasmodium falciparum ,using a nano luciferase reporter read-out” (2022)
Screen size: about 150,000 compounds; about 540 (0.36%) showed an effect of 50% or more. The list shows a part of the results.

Each compound was assayed on Plasmodium falciparum (assay: Primary screen in NF54 nanoGlo assay, in single point, at 2uM, 72h; a lower Z score goes with more inhibition). Conditions: timepoint 72 hour.
Type: functional, Erythrocyte

Structure (SMILES)	% Inhibition [%]	Z score
Cc1n[nH]c(CCc2nc(-c3cn(C)cn3)no2)c1C	-3	0.46
CCOCC1(CNC(=O)[C@H](C)S(=O)(=O)CC)CCC1	-4	0.56
Cc1cccc(OC(=O)O[C@H]2c3nccnc3C(=O)N2c2ccc(Cl)cn2)c1	32	-4.18
CCc1ncc(C(=O)N(C)CCc2cn[nH]c2)cn1	-3	0.52
C[C@H](NC(=O)COc1ccc(CO)nc1)c1cccs1	-2	0.26
Cc1cc(C(=O)N2CCn3nc(CCC(=O)NC4CC4)cc3C2)nc(C)n1	-7	1.45
COc1ccc(Cn2nc(C)n(-c3c(C)cccc3C)c2=O)cc1	1	-0.2
CCOCC(=O)N[C@H]1CCN(c2ncnc3c2CCC3)C1	-11	1.88
COc1cccc2nc(C[C@H]3CN(C(=O)C4CCCCC4)CC[C@H]3CC(=O)O)[nH]c12	-1	0.09
COCC1(C(=O)N[C@H]2CN(CC(N)=O)C[C@@H]2c2ccc(C)o2)CCC1	1	-0.27
O[C@H]1CN(c2nc3ccccc3o2)C[C@@H]1N1CCCC1	-4	0.5
CC(C)(C)Cc1nc([C@H]2C[C@@H](c3ccccc3)N3CCC[C@H]23)no1	-12	2.34
Cc1cc(NC(=O)c2csc(CN(C)C)n2)cc2sc(N)nc12	2	-0.23
CC(C)(CNc1ccc(Br)cc1C#N)NS(C)(=O)=O	-11	1.29
CC1(S(=O)(=O)N2CCN(Cc3cncs3)CC2)CC1	-11	1.08
CC(=O)N1CC(C(=O)NCc2ccccc2Cl)C1	1	-0.18
CCOc1cccc(CNC(=O)c2ccc(Oc3nccnc3N3CCCCC3)cc2)c1	-5	0.9
CCc1nnc(CNC(=O)[C@H]2CCCN(Cc3ccco3)C2)s1	1	-0.11
C[C@H](NCc1csc(N)n1)c1ccc(N2CCCC2=O)cc1	8	-0.88
O=C(NCc1ccnc(OC2CCC2)c1)c1c[nH]c2cccc(F)c12	-11	1.39
CC(C)(C)c1cc(NC(=O)C2CN(C(=O)c3cnccn3)C2)on1	-14	2.21

Structure (SMILES)	% Inhibition [%]	Z score
CCN(CC)C(=O)Cc1c(F)cccc1Cl	-6	1.15
COCCc1ccc2oc(NCc3cnn(C(C)(C)C)c3)nc2c1	-6	0.73
O=C1NS(=O)(=O)c2cccnc2N1c1cccc(Cl)c1	-12	1.39
CC1CCCCC1NC(=O)NC1CC(=O)N(c2ccc3c(c2)OCCO3)C1 (stereo not drawn)	18	-2.54
Cc1nnc(NC(=O)c2nnn(-c3nc(C)c(C)s3)c2C)s1	-6	1.17
Cc1cc(C(F)(F)Cl)n(-c2nc(-c3ccco3)cc(C(F)(F)F)n2)n1	-33	3.86
C=C(C)CN(C)C(=O)Nc1ccc(Br)c(C)n1	8	-1.04
CCc1n[nH]c2c1CN(CCN1C[C@@H]3CC[C@H]1C3)CC2	-14	1.23
CC(C)C(NC(=O)NC(c1cccs1)C(C)C)c1cccs1 (stereo not drawn)	2	-0.3
O=C(Nc1nncs1)C1CCN(S(=O)(=O)c2ccc(Cl)cc2)CC1	-17	3.46
O=C(Nc1cccc(CNc2ncc(Cl)cn2)c1)NC1CC1	-6	0.71
COC(=O)[C@H]1CCCCN1CC(=O)NCc1ccccc1C	15	-2.04
Cc1ccc(NC(=O)C2[C@@H]3C=C[C@]4(O3)C(C(=O)NC3CCCC(C)C3C)N(C(C)CCc3ccccc3)C(=O)[C@H]24)cc1Cl (stereo partly drawn)	12	-1.88
CN1N=C(C(=O)N(C)c2nccs2)CCC1=O	-5	1.02
COCC(=O)N[C@H](C(=O)N1CCC(c2ccco2)C1)C(C)C (stereo partly drawn)	1	-0.14
Cc1nnc2ccc(-c3cccc(NC(=O)C4CCN(S(C)(=O)=O)CC4)c3)nn12	-2	0.34
Cc1ccnn1-c1ccccc1NC(=O)Cc1cccs1	-3	0.47
CCCc1cc(C(=O)N2CCC(Cc3ccccc3)CC2)[nH]n1	20	-2.53
N#Cc1cccc(C(=O)N2CCC3(CC2)N(Cc2ccccc2)C(=O)CS3(=O)=O)c1	-7	1.11
COc1ccc(C2=NN(C(=O)CN(CCN3CCOCC3)C(=O)c3cccc(F)c3)[C@H](c3ccc(C)cc3)C2)cc1	-12	2.04
Cc1oc2ncnc(N3CCC(C(=O)Nc4ccc(Br)cc4)CC3)c2c1C	-6	0.71

Structure (SMILES)	% Inhibition [%]	Z score
CN(CC1CCCCO1)c1ncc(Cl)c(N(C)CC2CCCCO2)n1 (stereo not drawn)	-6	0.7
COc1ccccc1CN1C(=O)O[C@H]2CN(Cc3nccn3C)C[C@H]21	-8	1.14
Cc1cccc(CN2CCn3nc(CCC(=O)N4CCOCC4)cc3C2)c1	5	-0.67
CNC(=O)N(C)C1CCC(F)(F)CC1	-12	1.16
CNC(=O)[C@@H]1CN(Cc2ccc(-c3cccc(Cl)c3)s2)CCO1	0	0.05
CC#CCN1C(=O)N[C@@](CCc2ccccc2)(C2CCN(Cc3ccccn3)CC2)C1=O	-2	0.3
Cc1n[nH]c(C)c1CCCNC(=O)[C@H]1CCOc2ccccc2C1	0	0
CCC(O)(C#CCN1CCOCC1)CC	7	-1.33
c1ccc2c(c1)nc(N1CC(c3ncc(C4CC4)cn3)C1)c1cncn12	-16	2.8
C[C@H](NC(=O)C1(N2CCCCC2)CCCCC1)c1nncn1C1CCCC1	-6	0.86
CCCc1nc(CN(C)c2nccnc2OC)no1	-8	1.04
O=C(c1cccn2c(=O)[nH]nc12)N1C[C@H](c2ccccc2)C2(CCC2)C1	-4	0.45
O=C(NC[C@H](Cc1ccc2ccccc2c1)C(=O)O)c1ccccc1Cn1cccn1	-2	0.15
C[C@@H](C(=O)N1Cc2ccc(Br)cc2C1)S(N)(=O)=O	2	-0.43
CCC(C)n1ncc(NC(=O)N2CCC(c3ccccc3)C2C)c1C (stereo not drawn)	-4	0.47
CCCNC(=O)CNC(=O)c1cc2n(n1)CCCN(Cc1ccccc1)C2=O	-18	2.61
O=C1CC(CC(=O)N2CCc3ccccc3[C@H]2c2ccccc2)C(=O)N1 (stereo partly drawn)	-14	2.22
O=C(NCC1CC1)c1cn(C2CN(S(=O)(=O)c3cccc4cccnc34)C2)nn1	-10	1.84
C[C@H](O)CN(C(=O)CCc1ccncc1)C1CC1	1	-0.12
C[C@H](NC(=O)N(C)CCCN1CCCCCC1)c1ccc2[nH]ccc2c1	-3	0.47
CC(C)(C)c1cnnn1-c1ccc(NC(=O)c2cccs2)cc1	-13	2.08

Structure (SMILES)	% Inhibition [%]	Z score
O=C(N[C@H]1CCCc2cnccc21)c1cnc2n1CCC2	22	-2.83
Cc1cn2cc(C(=O)N[C@@H]3COCC[C@@H]3OCc3cscn3)ccc2n1	-6	1.03
CC(C)N1C(=O)[C@@H]2C(C(=O)Nc3ccc(Cl)c(Cl)c3)[C@]3(C)C=C[C@]2(O3)C1C(=O)NC1CCCCC1 (stereo partly drawn)	-5	0.61
Cc1ccc2nc(-c3cncnc3)cc(C(=O)N3CCC[C@H]3c3nc(C)no3)c2c1	-2	0.32
COc1ccc(CCC(=O)N[C@H](c2nc3ccccc3n2C(C)C)C(C)C)cc1	-5	0.81
N#Cc1ccc(C(=O)N(CCC(F)(F)F)CC2CC2)nc1	5	-0.62
Cc1ccc(S(=O)(=O)N2CCCC2)cc1-c1nnc(-c2ccccc2)o1	-6	0.99
O=C(O)[C@H]1CN(C(=O)c2ccc3cc[nH]c3c2)C[C@@H]1C1CC1	5	-0.91
Cc1nc(-c2ccc(N3CCN(C(=O)c4cccs4)CC3)nc2)no1	10	-1.27
CCn1ncnc1CN(C)CCCn1cccn1	-5	0.8
COCCCNC(=O)c1n[nH]c2c1CN(C(=O)Cc1cccc(Cl)c1)CC2	-14	1.37
O=C(NCc1c(F)cccc1F)c1cc(O)ncn1	-5	0.9
Cc1ccc(C2(c3noc(COc4ccc(C)nc4)n3)CCCC2)cc1	-5	0.74
FC1(F)CN[C@H](CN2CCCCC2)C1	-10	1.36
CC1(C)C2CCC1(C)C(NS(=O)(=O)N1CCOCC1)C2 (stereo not drawn)	-13	1.3
CCc1ccc(S(=O)(=O)Nc2cccn3nc(CC)nc23)cc1	3	-0.32
CCS(=O)(=O)N1CC(Oc2cccc(C)c2)C1	-10	1.37
CC(C)(NCCc1c[nH]c2ccccc12)c1nnnn1Cc1cccnc1	34	-1.36
Cc1csc([C@H](C)NC(=O)N(C)CC2(c3ccccc3)CC2)n1	-3	0.34
Cc1cc(C)cc(/N=C(/NC(=O)c2cccc(C)c2)N2CCN(Cc3cccc(F)c3)CC2)c1	-7	1.3
O=C([C@@H]1COCC(=O)N1Cc1ccccc1)N1CCOCC1	-9	1.04
